The target in experiment [1] is T1, PVR expressed on 3T3 cells (human) (UniProt P15151).
T1 sequence: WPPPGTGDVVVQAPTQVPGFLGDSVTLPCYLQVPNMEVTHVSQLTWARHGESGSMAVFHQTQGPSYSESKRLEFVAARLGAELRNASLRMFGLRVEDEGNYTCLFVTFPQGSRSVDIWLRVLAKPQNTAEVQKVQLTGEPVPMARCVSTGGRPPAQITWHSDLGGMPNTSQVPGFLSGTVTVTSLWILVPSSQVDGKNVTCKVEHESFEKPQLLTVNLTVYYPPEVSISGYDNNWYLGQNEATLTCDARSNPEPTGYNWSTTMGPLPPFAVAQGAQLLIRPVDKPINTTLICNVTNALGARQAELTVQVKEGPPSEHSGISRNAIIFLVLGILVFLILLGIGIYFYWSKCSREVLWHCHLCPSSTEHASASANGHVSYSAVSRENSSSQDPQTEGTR
Put plainly: flow cytometry on cells; PVR receptor competition: PVR-YFP/3T3 preincubated with DNAM-1-His, TIGIT-His, CD96-His (or TMIGD2-His control) at indicated concentrations at RT 40 min, then KIR2DL5-Ig 20 ug/mL on ice 45 min; PE anti-human IgG Fc; only the binder purified. In general terms: In flow cytometry, cells or beads pass a laser one at a time.

Chains of the proteins cited; added tags and fusions are not shown. Lines headed by an entry give the natural chain unless they say otherwise; changes in a name come on top. A line that says so, or that is headed by a name, gives the form on record, which may keep a tag or linker. Residues count along the entry.
UniProt Q8N109: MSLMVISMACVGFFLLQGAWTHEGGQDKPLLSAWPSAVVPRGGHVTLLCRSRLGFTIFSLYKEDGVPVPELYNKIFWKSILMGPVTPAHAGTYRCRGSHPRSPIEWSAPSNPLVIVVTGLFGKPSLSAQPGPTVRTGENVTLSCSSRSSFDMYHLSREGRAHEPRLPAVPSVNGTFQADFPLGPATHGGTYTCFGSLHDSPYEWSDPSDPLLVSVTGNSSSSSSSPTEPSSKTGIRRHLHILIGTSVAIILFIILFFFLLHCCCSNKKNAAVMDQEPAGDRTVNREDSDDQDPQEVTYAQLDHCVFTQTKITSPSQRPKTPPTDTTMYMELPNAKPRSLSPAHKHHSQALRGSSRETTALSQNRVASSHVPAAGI
KIR2DL5 (KIR2DL5A*001) expressed on 3T3 cells: residues 22-375 of Q8N109
KIR2DL5 Y298F (ITIM tyrosine mutant) transduced into primary NK cells (Q8N109, form named): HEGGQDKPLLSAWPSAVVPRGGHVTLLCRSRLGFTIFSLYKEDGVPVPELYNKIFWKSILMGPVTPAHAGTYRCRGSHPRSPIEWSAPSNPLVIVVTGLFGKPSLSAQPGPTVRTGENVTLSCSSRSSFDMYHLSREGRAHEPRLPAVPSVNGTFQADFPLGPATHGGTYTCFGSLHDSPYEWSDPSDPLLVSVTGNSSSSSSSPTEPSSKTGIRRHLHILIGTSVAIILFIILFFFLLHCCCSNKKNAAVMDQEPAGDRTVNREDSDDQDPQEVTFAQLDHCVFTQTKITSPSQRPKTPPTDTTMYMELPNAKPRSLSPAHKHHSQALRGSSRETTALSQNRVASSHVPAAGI
KIR2DL5 Y328F (ITSM tyrosine mutant) transduced into primary NK cells (Q8N109, form named): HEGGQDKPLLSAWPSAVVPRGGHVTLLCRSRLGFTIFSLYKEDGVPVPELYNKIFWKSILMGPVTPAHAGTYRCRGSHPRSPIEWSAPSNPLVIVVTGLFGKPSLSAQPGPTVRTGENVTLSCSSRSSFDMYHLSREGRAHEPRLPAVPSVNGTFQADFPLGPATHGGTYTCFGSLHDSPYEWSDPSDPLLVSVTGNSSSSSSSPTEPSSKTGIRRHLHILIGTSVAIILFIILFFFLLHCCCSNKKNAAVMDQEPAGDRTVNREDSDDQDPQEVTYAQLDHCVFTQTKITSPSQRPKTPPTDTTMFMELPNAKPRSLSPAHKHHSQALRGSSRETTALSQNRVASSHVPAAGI
KIR2DL5 D0 domain variant G97S expressed on 3T3 cells (Q8N109, form named): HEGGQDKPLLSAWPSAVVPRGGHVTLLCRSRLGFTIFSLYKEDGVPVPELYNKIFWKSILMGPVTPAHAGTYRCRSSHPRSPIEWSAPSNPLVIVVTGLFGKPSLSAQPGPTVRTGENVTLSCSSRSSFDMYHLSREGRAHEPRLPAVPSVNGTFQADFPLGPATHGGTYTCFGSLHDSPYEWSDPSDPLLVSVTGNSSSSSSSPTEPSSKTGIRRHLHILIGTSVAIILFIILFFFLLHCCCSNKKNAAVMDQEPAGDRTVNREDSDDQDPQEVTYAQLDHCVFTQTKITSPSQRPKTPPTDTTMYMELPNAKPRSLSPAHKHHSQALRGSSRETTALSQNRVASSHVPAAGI
KIR2DL5 D0 domain variant P112S expressed on 3T3 cells (Q8N109, form named): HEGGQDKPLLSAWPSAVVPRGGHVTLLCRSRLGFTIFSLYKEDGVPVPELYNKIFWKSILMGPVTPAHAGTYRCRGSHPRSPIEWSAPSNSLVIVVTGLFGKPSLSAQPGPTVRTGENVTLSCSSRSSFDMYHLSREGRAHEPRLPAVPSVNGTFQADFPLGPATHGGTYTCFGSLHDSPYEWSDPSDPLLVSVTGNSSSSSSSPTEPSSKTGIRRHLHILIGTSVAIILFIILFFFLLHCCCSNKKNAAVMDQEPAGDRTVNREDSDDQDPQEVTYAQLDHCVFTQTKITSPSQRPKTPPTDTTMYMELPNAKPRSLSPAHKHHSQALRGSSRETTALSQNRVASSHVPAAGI
KIR2DL5 D0 domain variant R52H expressed on 3T3 cells (Q8N109, form named): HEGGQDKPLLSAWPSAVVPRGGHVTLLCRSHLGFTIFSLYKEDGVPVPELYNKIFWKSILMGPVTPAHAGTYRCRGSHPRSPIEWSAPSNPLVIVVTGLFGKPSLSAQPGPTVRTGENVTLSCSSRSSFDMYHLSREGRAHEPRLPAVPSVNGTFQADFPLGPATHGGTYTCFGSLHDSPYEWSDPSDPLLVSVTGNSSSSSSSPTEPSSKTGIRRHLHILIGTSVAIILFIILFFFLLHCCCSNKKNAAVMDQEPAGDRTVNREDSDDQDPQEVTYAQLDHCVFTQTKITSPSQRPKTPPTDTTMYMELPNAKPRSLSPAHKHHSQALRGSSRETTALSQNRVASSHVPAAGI
KIR2DL5 D0 domain variant T46S expressed on 3T3 cells (Q8N109, form named): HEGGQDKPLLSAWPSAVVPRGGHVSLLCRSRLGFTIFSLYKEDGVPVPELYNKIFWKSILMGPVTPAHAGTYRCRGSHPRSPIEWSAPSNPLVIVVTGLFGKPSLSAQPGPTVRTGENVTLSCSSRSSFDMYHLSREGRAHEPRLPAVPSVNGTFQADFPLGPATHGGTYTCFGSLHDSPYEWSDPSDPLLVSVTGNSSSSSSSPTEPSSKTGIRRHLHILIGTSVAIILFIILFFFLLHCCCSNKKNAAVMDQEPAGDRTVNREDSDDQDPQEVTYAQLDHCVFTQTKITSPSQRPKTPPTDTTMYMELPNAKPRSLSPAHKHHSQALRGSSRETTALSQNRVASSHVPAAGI
KIR2DL5A*005 expressed on 3T3 cells (Q8N109, form named): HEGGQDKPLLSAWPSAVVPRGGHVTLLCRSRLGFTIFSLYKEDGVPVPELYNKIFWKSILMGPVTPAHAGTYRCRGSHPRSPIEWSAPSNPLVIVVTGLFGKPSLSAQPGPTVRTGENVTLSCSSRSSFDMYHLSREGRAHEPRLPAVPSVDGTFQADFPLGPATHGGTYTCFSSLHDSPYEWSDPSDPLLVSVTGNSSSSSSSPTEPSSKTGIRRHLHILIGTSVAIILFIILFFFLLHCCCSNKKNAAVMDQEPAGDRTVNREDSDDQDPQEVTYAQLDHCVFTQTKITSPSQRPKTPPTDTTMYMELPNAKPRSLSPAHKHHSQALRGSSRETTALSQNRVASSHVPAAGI
UniProt Q8N743, residues 26-410: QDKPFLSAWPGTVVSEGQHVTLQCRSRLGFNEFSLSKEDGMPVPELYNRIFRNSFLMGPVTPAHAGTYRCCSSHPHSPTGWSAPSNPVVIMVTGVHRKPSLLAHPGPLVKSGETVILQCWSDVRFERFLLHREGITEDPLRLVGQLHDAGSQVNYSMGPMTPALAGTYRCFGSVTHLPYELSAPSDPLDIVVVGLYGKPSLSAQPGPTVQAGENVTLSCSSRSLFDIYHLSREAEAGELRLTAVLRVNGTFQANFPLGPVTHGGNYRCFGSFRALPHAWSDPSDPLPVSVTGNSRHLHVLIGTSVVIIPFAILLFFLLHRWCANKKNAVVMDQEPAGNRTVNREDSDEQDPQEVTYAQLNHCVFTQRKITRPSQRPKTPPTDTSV
UniProt Q99706, residues 22-377: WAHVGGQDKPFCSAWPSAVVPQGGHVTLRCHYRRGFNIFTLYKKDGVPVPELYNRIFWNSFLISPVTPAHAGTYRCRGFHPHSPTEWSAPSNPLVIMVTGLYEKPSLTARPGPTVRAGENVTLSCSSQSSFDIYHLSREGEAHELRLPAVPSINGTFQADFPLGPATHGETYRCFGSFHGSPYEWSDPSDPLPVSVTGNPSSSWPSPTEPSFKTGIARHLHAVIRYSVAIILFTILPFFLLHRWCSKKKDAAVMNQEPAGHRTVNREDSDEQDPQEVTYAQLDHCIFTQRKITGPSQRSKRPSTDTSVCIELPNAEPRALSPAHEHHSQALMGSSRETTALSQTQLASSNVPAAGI
UniProt P29350: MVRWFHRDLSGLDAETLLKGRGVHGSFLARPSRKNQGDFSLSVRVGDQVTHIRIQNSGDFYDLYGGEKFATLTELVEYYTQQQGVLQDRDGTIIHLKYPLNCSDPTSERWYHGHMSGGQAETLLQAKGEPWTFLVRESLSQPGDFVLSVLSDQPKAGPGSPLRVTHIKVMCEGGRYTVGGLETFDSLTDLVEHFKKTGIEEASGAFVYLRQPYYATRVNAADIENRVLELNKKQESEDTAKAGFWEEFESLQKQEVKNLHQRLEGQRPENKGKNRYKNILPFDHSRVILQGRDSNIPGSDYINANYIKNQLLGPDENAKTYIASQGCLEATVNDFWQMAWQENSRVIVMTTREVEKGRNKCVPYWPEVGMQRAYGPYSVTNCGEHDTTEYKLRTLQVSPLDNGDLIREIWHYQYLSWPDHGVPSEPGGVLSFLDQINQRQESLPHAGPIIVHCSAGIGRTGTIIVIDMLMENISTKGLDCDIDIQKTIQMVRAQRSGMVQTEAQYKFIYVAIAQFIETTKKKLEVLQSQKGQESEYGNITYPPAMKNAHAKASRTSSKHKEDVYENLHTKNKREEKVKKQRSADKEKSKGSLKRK
UniProt Q92692, residues 32-360: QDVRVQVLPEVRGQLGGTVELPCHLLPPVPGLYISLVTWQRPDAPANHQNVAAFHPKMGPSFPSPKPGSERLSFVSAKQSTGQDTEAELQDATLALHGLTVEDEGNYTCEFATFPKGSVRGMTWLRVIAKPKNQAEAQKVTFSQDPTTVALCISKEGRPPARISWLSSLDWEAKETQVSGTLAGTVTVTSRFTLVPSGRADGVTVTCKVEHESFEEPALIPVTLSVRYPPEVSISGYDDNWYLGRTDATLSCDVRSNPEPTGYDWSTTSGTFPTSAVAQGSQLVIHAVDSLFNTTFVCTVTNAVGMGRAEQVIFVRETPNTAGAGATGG

Experiment [2] addresses KIR2DL5 Y298F (ITIM tyrosine mutant) transduced into primary NK cells (human) (UniProt Q8N109). Put plainly: co-IP; primary NK cells transduced with WT or mutant KIR2DL5, treated with 1 mM pervanadate for 5 min; lysates immunoprecipitated with anti-KIR2DL5 antibodies and protein G Dynabeads; immunoblots for SHP-1 and SHP-2.
The target of experiment [3] is KIR2DL5 Y328F (ITSM tyrosine mutant) transduced into primary NK cells (human) (UniProt Q8N109). Described as above.
The target in experiment [4] is WT KIR2DL5 (KIR2DL5A*001) transduced into primary NK cells (human) (UniProt Q8N109). The description is as above.
Experiment [5] deals with KIR2DL5 (KIR2DL5A*001) expressed on 3T3 cells (human) (UniProt Q8N109). Put plainly: flow cytometry on cells; PVR-Ig, CD112-Ig or hIgG incubated with transduced 3T3 cells on ice for 45 min; detected with APC- or PE-conjugated anti-human IgG Fc; only the binder purified.
Experiment [6] addresses KIR3DL3 expressed on 3T3 cells (human) (UniProt Q8N743). Kind of experiment: intercellular conjugation assay (flow cytometry); eFluor 450-labelled PVR/3T3 or HHLA2/3T3 (2 x 10^5) incubated with PKH26-labelled KIR2DL5/3T3 or KIR3DL3/3T3 (2 x 10^5) at 37 C for 45 min.
In experiment [7] the target is KIR2DL5 (KIR2DL5A*001) expressed on 3T3 cells (human) (UniProt Q8N109). Put plainly: intercellular conjugation assay (flow cytometry); as the conjugation assay, in the presence of the indicated anti-KIR2DL5 mAbs or mIgG1 (10 ug/mL).
Experiment [8] shares this target. Put plainly: intercellular conjugation assay (flow cytometry); eFluor 450-labelled PVR/3T3 or HHLA2/3T3 (2 x 10^5) incubated with PKH26-labelled KIR2DL5/3T3 or KIR3DL3/3T3 (2 x 10^5) at 37 C for 45 min.
The target in experiment [9] is KIR2DL4 expressed on 3T3 cells (human) (UniProt Q99706). Kind of experiment: flow cytometry on cells; PVR-Ig, CD112-Ig or hIgG incubated with transduced 3T3 cells on ice for 45 min; detected with APC- or PE-conjugated anti-human IgG Fc; only the binder purified.
Experiment [10] deals with KIR2DL5 D0 domain variant G97S expressed on 3T3 cells (human) (UniProt Q8N109). The experiment is described as above.
Experiment [11] deals with KIR2DL5 D0 domain variant P112S expressed on 3T3 cells (human) (UniProt Q8N109). The description is as above.
Experiment [12] addresses KIR2DL5 D0 domain variant R52H expressed on 3T3 cells (human) (UniProt Q8N109). The description is as above.
Experiment [13] addresses KIR2DL5 D0 domain variant T46S expressed on 3T3 cells (human) (UniProt Q8N109). Described as above.
Experiment [14] deals with KIR2DL5A*005 expressed on 3T3 cells (human) (UniProt Q8N109). Described as above.
Experiment [15] concerns the target KIR2DL5 (KIR2DL5A*001) expressed on 3T3 cells (human) (UniProt Q8N109). Kind of experiment: flow cytometry on cells; reverse direction: PVR-Ig (20 ug/mL) preincubated with indicated concentrations of His-tagged protein, then stained KIR2DL5/3T3 on ice 45 min; PE anti-human IgG Fc; only the binder purified.
For experiment [16] the target is unchanged. Kind of experiment: flow cytometry on cells; mAb blocking assay: KIR2DL5/3T3 preincubated with serial concentrations of F8B30 or mIgG1 on ice 30 min, washed, then 20 ug/mL PVR-Ig on ice 45 min; APC anti-human IgG Fc; only the binder purified.

Drawing on publication PMC9663162, this text covers binding for 6 molecules.

No constants are given. Whether binding was seen depends on the method and setting. For part of these data: Binding seen in cells or lysates may run through a third protein. Some results given as binding are weak or reduced against the parent protein; the word gives no strength. For part of these data: Tags and fused reporters may be left off the sequences shown.

In the case of “KIR2DL5-Ig fusion protein (from UniProt Q8N109 22-238) (Fc fusion)”, the binding entry in experiment [1] was “binds”.

Turning to “Src homology 2–containing protein tyrosine phosphatase 1 (SHP-1) (from UniProt P29350 1-595) (enzyme)”, the binding entry in [2], in experiment [3] and in [4] was “binds” in each case.

As to “CD112-Ig (from UniProt Q92692 32-360) (Fc fusion)”, the binding entry in [5] is listed as “no binding”.

B1: HHLA2 expressed on 3T3 cells (ligand, UniProt Q9UM44 23-414)
chain: IFPLAFFIYVPMNEQIVIGRLDEDIILPSSFERGSEVVIHWKYQDSYKVHSYYKGSDHLESQDPRYANRTSLFYNEIQNGNASLFFRRVSLLDEGIYTCYVGTAIQVITNKVVLKVGVFLTPVMKYEKRNTNSFLICSVLSVYPRPIITWKMDNTPISENNMEETGSLDSFSINSPLNITGSNSSYECTIENSLLKQTWTGRWTMKDGLHKMQSEHVSLSCQPVNDYFSPNQDFKVTWSRMKSGTFSVLAYYLSSSQNTIINESRFSWNKELINQSDFSMNLMDLNLSDSGEYLCNISSDEYTLLTIHTVHVEPSQETASHNKGLWILVPSAILAAFLLIWSVKCCRAQLEARRSRHPADGAQQERCCVPPGERCPSAPDNGEENVPLSGKV
For B1, the binding entry in [6] is recorded as “binds”.

B2: PVR expressed on 3T3 cells (ligand, UniProt P15151 21-417)
chain: T1 sequence
B2: the binding entry was “binds” in experiment [7], “binds” in [8] and “no binding” in experiment [6].

B3: PVR-Ig fusion protein (Fc fusion, UniProt P15151 21-343)
chain: WPPPGTGDVVVQAPTQVPGFLGDSVTLPCYLQVPNMEVTHVSQLTWARHGESGSMAVFHQTQGPSYSESKRLEFVAARLGAELRNASLRMFGLRVEDEGNYTCLFVTFPQGSRSVDIWLRVLAKPQNTAEVQKVQLTGEPVPMARCVSTGGRPPAQITWHSDLGGMPNTSQVPGFLSGTVTVTSLWILVPSSQVDGKNVTCKVEHESFEKPQLLTVNLTVYYPPEVSISGYDNNWYLGQNEATLTCDARSNPEPTGYNWSTTMGPLPPFAVAQGAQLLIRPVDKPINTTLICNVTNALGARQAELTVQVKEGPPSEHSGISRN
For the molecule B3, the binding result is on record as “no binding” in experiment [9]; “binds” in experiment [5]; “binds” in experiment [10]; “binds” in [11]; “binds” in experiment [12]; “binds” in experiment [13]. Further, the binding entry in [14] is given as “no binding”; in [15] it was “binds”; in experiment [16], “binds”.
